98 variants from a collection of fitness landscapes (doi:10.1016/j.celrep.2020.107928) can be followed below.

B1: Caulobacter ParB omega fusion; a variant is named by its letters at X, in order, B8GW30 (parent)
chain: MESVVVGEPGMSEGRRGLGRGLSALLGEVDAAPAQAPGEQLGGSREAPIEILQRNPDQPRRTFREEDLEDLSNSIREKGVLQPILVRPSPDTAGEYQIVAGERAWRAAQRAGLKTVPIMVRELDDLAVLEIGIIENVQRADLNVLEEALSYKVLMEKFERTQENIAQTIGKSXSHVANXMRLLXLPDEVQSYLVSGELTAXHARAIAAAADPVALAKQIIEGGLSVRETEALARKAPNLSAGKSKGGRPPRVKDTDTQALESDLSSVLGLDVSIDHRGSTGTLTITYATLEQLDDLCNRLTRGI

Whole data set: some 81,000 sequences, median “one-hybrid fitness for binding NBS DNA” near -0.1, cut for the highest 2% near 0.36. This is one part of the list. Bounds are passed on as bounds.

The variants in this test derive from B1. Briefly: one-hybrid fitness for binding NBS DNA (the Noc-binding site; scaled: cognate 1, non-cognate 0); higher = stronger binding. The settings on record: with NBS DNA site. Put shortly:
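In E. coli USO, a HIS3 reporter with its site placed 19 bp from the promoter was used to select Caulobacter ParB variants randomised at four specificity codons. Growth lasted 48 hours at 37°C on histidine-free M9 containing 0.1 mM IPTG and 5 mM 3-AT. Fitness was taken as the log change in variant-to-wild-type read ratio from Illumina sequencing of pre- and post-selection plasmids, rescaled between the non-cognate and cognate sites.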
In the case of KAMY, the “one-hybrid fitness for binding NBS DNA” value is not above 0.2.

As to IGRF, the “one-hybrid fitness for binding NBS DNA” value is not above 0.2.

On to VPLC, for which the “one-hybrid fitness for binding NBS DNA” value was not above 0.2.

For the variant NYKY, the “one-hybrid fitness for binding NBS DNA” value was not above 0.2.

For the variant QCHK, the “one-hybrid fitness for binding NBS DNA” value was not above 0.2.

Turning to KLSE, the “one-hybrid fitness for binding NBS DNA” value is not above 0.2.

For DHTL, the “one-hybrid fitness for binding NBS DNA” value was not above 0.2.

Take GLYY: the “one-hybrid fitness for binding NBS DNA” value was not above 0.2.

With RQRN, the “one-hybrid fitness for binding NBS DNA” value turned out to be 0.221.

Turning to LKTK, the “one-hybrid fitness for binding NBS DNA” value is not above 0.2.

As to WYRC, the “one-hybrid fitness for binding NBS DNA” value is not above 0.2.

In the case of AMRA, the “one-hybrid fitness for binding NBS DNA” value is not above 0.2.

Turning to RAKW, the “one-hybrid fitness for binding NBS DNA” value was not above 0.2.

Turning to WMDF, the “one-hybrid fitness for binding NBS DNA” value was not above 0.2.

With AIYG, the “one-hybrid fitness for binding NBS DNA” value was not above 0.2.

With KMKY, the “one-hybrid fitness for binding NBS DNA” value was not above 0.2.

On to KLQC, for which the “one-hybrid fitness for binding NBS DNA” value is not above 0.2.

Consider WSKS, for which the “one-hybrid fitness for binding NBS DNA” value is not above 0.2.

For PAVC, the “one-hybrid fitness for binding NBS DNA” value was not above 0.2.

For TTQP, the “one-hybrid fitness for binding NBS DNA” value was not above 0.2.

For PRPC, the “one-hybrid fitness for binding NBS DNA” value was not above 0.2.

With KSDI, the “one-hybrid fitness for binding NBS DNA” value was not above 0.2.

Turning to HVAS, the “one-hybrid fitness for binding NBS DNA” value was not above 0.2.

RRPE: the “one-hybrid fitness for binding NBS DNA” value was not above 0.2.

For GLWG, the “one-hybrid fitness for binding NBS DNA” value was not above 0.2.

In the case of RTGY, the “one-hybrid fitness for binding NBS DNA” value is not above 0.2.

Turning to NMIR, the “one-hybrid fitness for binding NBS DNA” value was not above 0.2.

Consider VDQG, for which the “one-hybrid fitness for binding NBS DNA” value is not above 0.2.

In the case of KSYG, the “one-hybrid fitness for binding NBS DNA” value was not above 0.2.

Consider TCEN, for which the “one-hybrid fitness for binding NBS DNA” value is not above 0.2.

For YFPT, the “one-hybrid fitness for binding NBS DNA” value was not above 0.2.

On to QLPH, for which the “one-hybrid fitness for binding NBS DNA” value was not above 0.2.

As for CSGS, the “one-hybrid fitness for binding NBS DNA” value was not above 0.2.

As to RRVD, the “one-hybrid fitness for binding NBS DNA” value was not above 0.2.

Take QEHS: the “one-hybrid fitness for binding NBS DNA” value is not above 0.2.

On to QHFM, for which the “one-hybrid fitness for binding NBS DNA” value was not above 0.2.

As for SVDT, the “one-hybrid fitness for binding NBS DNA” value was not above 0.2.

For the variant IGSS, the “one-hybrid fitness for binding NBS DNA” value is not above 0.2.

As to PATF, the “one-hybrid fitness for binding NBS DNA” value was not above 0.2.

Turning to QNLT, the “one-hybrid fitness for binding NBS DNA” value is not above 0.2.

Take SILS: the “one-hybrid fitness for binding NBS DNA” value is not above 0.2.

As to RMSW, the “one-hybrid fitness for binding NBS DNA” value was not above 0.2.

For the variant GRWV, the “one-hybrid fitness for binding NBS DNA” value was not above 0.2.

As for IPLW, the “one-hybrid fitness for binding NBS DNA” value is not above 0.2.

As to RHTG, the “one-hybrid fitness for binding NBS DNA” value is not above 0.2.

Take YFHR: the “one-hybrid fitness for binding NBS DNA” value is not above 0.2.

For GISK, the “one-hybrid fitness for binding NBS DNA” value is not above 0.2.

RSDD: the “one-hybrid fitness for binding NBS DNA” value was not above 0.2.

For the variant FANN, the “one-hybrid fitness for binding NBS DNA” value was not above 0.2.

Take FAKW: the “one-hybrid fitness for binding NBS DNA” value was not above 0.2.

Turning to QMEH, the “one-hybrid fitness for binding NBS DNA” value is not above 0.2.

Turning to HNYC, the “one-hybrid fitness for binding NBS DNA” value was not above 0.2.

As for HVFG, the “one-hybrid fitness for binding NBS DNA” value is not above 0.2.

For the variant PISQ, the “one-hybrid fitness for binding NBS DNA” value is not above 0.2.

For the variant REHL, the “one-hybrid fitness for binding NBS DNA” value is not above 0.2.

As for PVIR, the “one-hybrid fitness for binding NBS DNA” value was not above 0.2.

Turning to YNGT, the “one-hybrid fitness for binding NBS DNA” value is not above 0.2.

As for RWYA, the “one-hybrid fitness for binding NBS DNA” value was not above 0.2.

Regarding AYFT, the “one-hybrid fitness for binding NBS DNA” value was not above 0.2.

Turning to AARK, the “one-hybrid fitness for binding NBS DNA” value was not above 0.2.

For LNIS, the “one-hybrid fitness for binding NBS DNA” value was not above 0.2.

For FCKT, the “one-hybrid fitness for binding NBS DNA” value came out at 0.28.

On to QNYW, for which the “one-hybrid fitness for binding NBS DNA” value is not above 0.2.

In the case of NMKF, the “one-hybrid fitness for binding NBS DNA” value was not above 0.2.

EPFS: the “one-hybrid fitness for binding NBS DNA” value is not above 0.2.

Take GRTN: the “one-hybrid fitness for binding NBS DNA” value was not above 0.2.

Turning to DQSC, the “one-hybrid fitness for binding NBS DNA” value was not above 0.2.

LTSI: the “one-hybrid fitness for binding NBS DNA” value was not above 0.2.

Consider NAQA, for which the “one-hybrid fitness for binding NBS DNA” value is not above 0.2.

For IFAG, the “one-hybrid fitness for binding NBS DNA” value is not above 0.2.

Consider KRMT, for which the “one-hybrid fitness for binding NBS DNA” value was 0.539.

HSGF: the “one-hybrid fitness for binding NBS DNA” value was not above 0.2.

As to PQKF, the “one-hybrid fitness for binding NBS DNA” value is not above 0.2.

HKTV: the “one-hybrid fitness for binding NBS DNA” value is not above 0.2.

On to LSTV, for which the “one-hybrid fitness for binding NBS DNA” value was not above 0.2.

With EHNT, the “one-hybrid fitness for binding NBS DNA” value is not above 0.2.

As to EIKS, the “one-hybrid fitness for binding NBS DNA” value was not above 0.2.

In the case of TGLI, the “one-hybrid fitness for binding NBS DNA” value is not above 0.2.

Consider GRRA, for which the “one-hybrid fitness for binding NBS DNA” value is not above 0.2.

For the variant LTFG, the “one-hybrid fitness for binding NBS DNA” value is not above 0.2.

With GANS, the “one-hybrid fitness for binding NBS DNA” value is not above 0.2.

Turning to NKPG, the “one-hybrid fitness for binding NBS DNA” value was not above 0.2.

As for FLVR, the “one-hybrid fitness for binding NBS DNA” value was not above 0.2.

Regarding YVWR, the “one-hybrid fitness for binding NBS DNA” value is not above 0.2.

As to HLQG, the “one-hybrid fitness for binding NBS DNA” value was not above 0.2.

TMRL: the “one-hybrid fitness for binding NBS DNA” value is not above 0.2.

Take YETI: the “one-hybrid fitness for binding NBS DNA” value was not above 0.2.

Turning to MHPM, the “one-hybrid fitness for binding NBS DNA” value is not above 0.2.

As for DCDR, the “one-hybrid fitness for binding NBS DNA” value is not above 0.2.

Consider MEWS, for which the “one-hybrid fitness for binding NBS DNA” value is not above 0.2.

As to VHKK, the “one-hybrid fitness for binding NBS DNA” value was not above 0.2.

As for TFSM, the “one-hybrid fitness for binding NBS DNA” value is not above 0.2.

As to PGRE, the “one-hybrid fitness for binding NBS DNA” value is not above 0.2.

As to FRPG, the “one-hybrid fitness for binding NBS DNA” value is not above 0.2.

In the case of GFHS, the “one-hybrid fitness for binding NBS DNA” value is not above 0.2.

Turning to PHHN, the “one-hybrid fitness for binding NBS DNA” value is not above 0.2.

As for FRGT, the “one-hybrid fitness for binding NBS DNA” value was not above 0.2.

On to MSAG, for which the “one-hybrid fitness for binding NBS DNA” value is not above 0.2.
